# The supplement of paper PMC8728848
# This is one part of the list.
# B1: F17aG (Escherichia coli), Q99003 (protein)
# chain: MTNFYKVFLAVFILVCCNISQAAVSFIGSTENDVGPSLGSYSRTHAMDNLPFVYDTRNKIGYQNANVWHISKGFCVGLDGKVDLPVVGSLDGQSIYGLTEEVGLLIWMGDTKYSRGTAMSGNSWENVFSGWCVGANTASTQGLSVRVTPVILKRNSSARYSVQKTSIGSIRMRPYNGSSAGSVQTTVNFSLNPFTLNDTVTSCRLLTPSAVNVSLAAISAGQLPSSGDEVVAGTTSLKLQCDAGVTVWATLTDATTPSNRSDILTLTGASTATGVGLRIYKNTDSTPLKFGPDSPVKGNENQWQLSTGTETSPSVRLYVKYVNTGEGINPGTVNGISTFTFSYQ
# Tests used:
# Assay in all cases: glycan array binding signal (z-score within array); higher = stronger binding
# Settings in all cases: glycan notation: IUPAC condensed, linker removed
# Gal(b1-3)Gal(b1-4)GlcNAc = target: Gal(b1-3)Gal(b1-4)GlcNAc
# How it was run: (§1)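 Arrays were curated from the Consortium for Functional Glycomics database, 3228 in total, and kept only where the protein sequence was available. Binding is expressed as a within-array Z-score. This score was averaged across arrays of the same protein sequence at different concentrations or buffers and across linkers, and negative values can be read as non-binding.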
# [1] = target: Gal(b1-3)Gal(b1-4)GlcNAc(b1-2)Man(a1-3)[Gal(b1-3)Gal(b1-4)GlcNAc(b1-2)Man(a1-6)]Man(b1-4)GlcNAc(b1-4)GlcNAc
# How it was run: as §1
# Gal(b1-3)GalNAc = target: Gal(b1-3)GalNAc
# How it was run: as §1
# [2] = target: Gal(b1-3)GalNAc(a1-3)[Fuc(a1-2)]Gal(b1-4)Glc
# How it was run: as §1
# [3] = target: Gal(b1-3)GalNAc(a1-3)[Fuc(a1-2)]Gal(b1-4)GlcNAc
# How it was run: as §1
# [4] = target: Gal(b1-3)GalNAc(b1-3)Gal(a1-4)Gal(b1-4)Glc
# How it was run: as §1
# [5] = target: Gal(b1-3)GalNAc(b1-4)Gal(b1-4)Glc
# How it was run: as §1
# [6] = target: Gal(b1-3)GalNAc(b1-4)[Neu5Ac(a2-3)]Gal(b1-4)Glc
# How it was run: as §1
# Gal(b1-3)GlcNAc = target: Gal(b1-3)GlcNAc
# How it was run: as §1
# [7] = target: Gal(b1-3)GlcNAc(a1-6)Gal(b1-4)GlcNAc
# How it was run: as §1
# [8] = target: Gal(b1-3)GlcNAc(b1-2)Man(a1-3)[Gal(b1-3)GlcNAc(b1-2)Man(a1-6)]Man(b1-4)GlcNAc(b1-4)GlcNAc
# How it was run: as §1
# [9] = target: Gal(b1-3)GlcNAc(b1-2)Man(a1-3)[Gal(b1-3)GlcNAc(b1-2)Man(a1-6)]Man(b1-4)GlcNAc(b1-4)[Fuc(a1-6)]GlcNAc
# How it was run: as §1
# [10] = target: Gal(b1-3)GlcNAc(b1-2)[Gal(b1-3)GlcNAc(b1-6)]Man(a1-6)[Gal(b1-3)GlcNAc(b1-2)Man(a1-3)]Man(b1-4)GlcNAc(b1-4)GlcNAc
# How it was run: as §1
# [11] = target: Gal(b1-3)GlcNAc(b1-3)Gal(b1-3)GlcNAc
# How it was run: as §1
# [12] = target: Gal(b1-3)GlcNAc(b1-3)Gal(b1-4)Glc
# How it was run: as §1
# [13] = target: Gal(b1-3)GlcNAc(b1-3)Gal(b1-4)GlcNAc
# How it was run: as §1
# [14] = target: Gal(b1-3)GlcNAc(b1-3)Gal(b1-4)GlcNAc(b1-6)[Gal(b1-3)GlcNAc(b1-3)]Gal(b1-4)Glc
# How it was run: as §1
# [15] = target: Gal(b1-3)GlcNAc(b1-3)Gal(b1-4)[Fuc(a1-3)]GlcNAc(b1-6)[Gal(b1-3)GlcNAc(b1-3)]Gal(b1-4)Glc
# How it was run: as §1
# [16] = target: Gal(b1-3)GlcNAc(b1-3)GalNAc
# How it was run: as §1
# [17] = target: Gal(b1-3)GlcNAc(b1-6)Gal(b1-4)GlcNAc
# How it was run: as §1
# [18] = target: Gal(b1-3)[Fuc(a1-4)]GlcNAc
# How it was run: as §1
# [19] = target: Gal(b1-3)[Fuc(a1-4)]GlcNAc(b1-2)Man(a1-3)[Gal(b1-3)[Fuc(a1-4)]GlcNAc(b1-2)Man(a1-6)]Man(b1-4)GlcNAc(b1-4)GlcNAc
# How it was run: as §1
# [20] = target: Gal(b1-3)[Fuc(a1-4)]GlcNAc(b1-2)Man(a1-3)[Gal(b1-3)[Fuc(a1-4)]GlcNAc(b1-2)Man(a1-6)]Man(b1-4)GlcNAc(b1-4)[Fuc(a1-6)]GlcNAc
# How it was run: as §1
# [21] = target: Gal(b1-3)[Fuc(a1-4)]GlcNAc(b1-3)Gal(b1-3)[Fuc(a1-4)]GlcNAc
# How it was run: as §1
# [22] = target: Gal(b1-3)[Fuc(a1-4)]GlcNAc(b1-3)Gal(b1-4)GlcNAc
# How it was run: as §1
# [23] = target: Gal(b1-3)[Fuc(a1-4)]GlcNAc(b1-3)Gal(b1-4)[Fuc(a1-3)]GlcNAc
# How it was run: as §1
# [24] = target: Gal(b1-3)[GlcNAc(b1-6)]GalNAc
# How it was run: as §1
# [25] = target: Gal(b1-3)[Neu5Ac(a2-6)]GalNAc
# How it was run: as §1
# [26] = target: Gal(b1-3)[Neu5Ac(a2-6)]GlcNAc(b1-6)Gal(b1-4)Glc
# How it was run: as §1
# [27] = target: Gal(b1-3)[Neu5Ac(b2-6)]GalNAc
# How it was run: as §1
# Gal(b1-4)Gal = target: Gal(b1-4)Gal
# How it was run: as §1
# [28] = target: Gal(b1-4)GalNAc(a1-3)[Fuc(a1-2)]Gal(b1-4)GlcNAc
# How it was run: as §1
# [29] = target: Gal(b1-4)GalNAc(b1-3)[Fuc(a1-2)]Gal(b1-4)GlcNAc
# How it was run: as §1
# Gal(b1-4)Glc = target: Gal(b1-4)Glc
# How it was run: as §1
# Gal(b1-4)Glc6S = target: Gal(b1-4)Glc6S
# How it was run: as §1
# Gal(b1-4)GlcNAc = target: Gal(b1-4)GlcNAc
# How it was run: as §1
# [30] = target: Gal(b1-4)GlcNAc(a1-6)Gal(b1-4)GlcNAc
# How it was run: as §1
# Gal(b1-4)GlcNAc(b1-2)Man = target: Gal(b1-4)GlcNAc(b1-2)Man
# How it was run: as §1
binder,measurement,setting,value
B1,glycan array binding signal (z-score),Gal(b1-3)Gal(b1-4)GlcNAc,-0.151
same,glycan array binding signal (z-score),[1],-0.05
same,glycan array binding signal (z-score),Gal(b1-3)GalNAc,0.105
same,glycan array binding signal (z-score),[2],-0.154
same,glycan array binding signal (z-score),[3],-0.156
same,glycan array binding signal (z-score),[4],-0.255
same,glycan array binding signal (z-score),[5],-0.246
same,glycan array binding signal (z-score),[6],-0.258
same,glycan array binding signal (z-score),Gal(b1-3)GlcNAc,-0.239
same,glycan array binding signal (z-score),[7],-0.168
same,glycan array binding signal (z-score),[8],-0.144
same,glycan array binding signal (z-score),[9],-0.138
same,glycan array binding signal (z-score),[10],-0.147
same,glycan array binding signal (z-score),[11],-0.134
same,glycan array binding signal (z-score),[12],-0.252
same,glycan array binding signal (z-score),[13],-0.236
same,glycan array binding signal (z-score),[14],-0.122
same,glycan array binding signal (z-score),[15],-0.174
same,glycan array binding signal (z-score),[16],-0.152
same,glycan array binding signal (z-score),[17],-0.148
same,glycan array binding signal (z-score),[18],-0.242
same,glycan array binding signal (z-score),[19],-0.119
same,glycan array binding signal (z-score),[20],0.003
same,glycan array binding signal (z-score),[21],-0.169
same,glycan array binding signal (z-score),[22],-0.242
same,glycan array binding signal (z-score),[23],-0.246
same,glycan array binding signal (z-score),[24],0.284
same,glycan array binding signal (z-score),[25],-0.205
same,glycan array binding signal (z-score),[26],-0.251
same,glycan array binding signal (z-score),[27],-0.243
same,glycan array binding signal (z-score),Gal(b1-4)Gal,-0.179
same,glycan array binding signal (z-score),[28],-0.251
same,glycan array binding signal (z-score),[29],-0.253
same,glycan array binding signal (z-score),Gal(b1-4)Glc,-0.252
same,glycan array binding signal (z-score),Gal(b1-4)Glc6S,-0.243
same,glycan array binding signal (z-score),Gal(b1-4)GlcNAc,-0.14
same,glycan array binding signal (z-score),[30],-0.124
same,glycan array binding signal (z-score),Gal(b1-4)GlcNAc(b1-2)Man,-0.059
